Consider 1 molecule from paper doi:10.1101/2022.12.30.522308 (bioRxiv, 2022).

The target of the experiment is T1, extracellular domain of human IL-9 receptor α (hIL-9Rα) (human, UniProt Q01113-1 40-261).
T1 sequence (looked up): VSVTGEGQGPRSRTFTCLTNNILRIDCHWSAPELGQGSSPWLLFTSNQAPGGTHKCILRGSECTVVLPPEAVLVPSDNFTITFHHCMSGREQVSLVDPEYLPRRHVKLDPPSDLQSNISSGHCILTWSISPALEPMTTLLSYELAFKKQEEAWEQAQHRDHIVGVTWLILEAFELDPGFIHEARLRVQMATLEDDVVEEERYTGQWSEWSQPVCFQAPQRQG
Nature of the experiment: BLI. (BLI is a label-free optical method that tracks binding on a fibre tip over time.)

B1: hIL-9^T117M, produced in HEK293T cells, biotinylated on the Avi-tag (ligand)
chain: not shown
modifications: biotin on the Avi-tag (in vitro, BirA)
Regarding B1, the binding result is listed as “binds”.
